# Source: PubChem BioAssay (NCATS)
# This list was built around the results that the source calls inconclusive (neither active nor inactive); the mix of calls is not that of the screen. A potency beside an inconclusive call is a rough fit, not a confirmed value. The source made the active and inactive calls. Calls follow the shape of the dose curve; as a rule, active = well fitted cell-killing curve with a large enough effect; inconclusive = small, poorly fitted or top-dose-only effect, or effect the other way; inactive = no such curve, though single readings can be large or run the other way.
# How the values were obtained:
# [1] = Viability qHTS for spleen associated tyrosine kinase inhibitor (SYKi) naive MV4-11 cells (AID 1963823); conditions: MV4-11 AML viability, CellTiter-Glo luminescence, 72 h; viability (% of control): at 45 µM (top of the series); also: nearly all actives have a fitted effect of over 40% in size
# Procedure, shortened: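 qHTS, SYK inhibitor-naive MV4-11; 500 cells/well; 72 hr compound exposure, 37 C; CellTiter-Glo added, 10 min RT; luminescence read.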
# [2] = Viability qHTS for spleen associated tyrosine kinase inhibitor (SYKi) drug resistant MV4-11 cells (AID 1963824); also: nearly all actives have a fitted effect of over 35% in size
# Procedure, shortened: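 SYK-inhibitor-resistant MV4-11 AML cells were seeded at 500 per well onto compound and cultured 72 hours (37 °C, 5% CO2). CellTiter-Glo was then added, and after 10 min at room temperature, luminescence gave viability.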
# Potency is read from the fitted curve at half-maximal effect; tags tell the direction and shape of the fitted curve.
SMILES,Potency [1],Potency [2],viability (% of control) [1],"viability, % of control [2]"
CC(=O)O[C@H]1[C@@]2(O)C[C@H](C)[C@H](OC(=O)c3ccccc3)[C@@H]2[C@@H](OC(=O)CO)[C@]2(OC(C)=O)C[C@H]3C(=O)C(C)(C)C[C@@H]3[C@@]1(C)[C@H]2OC(C)=O,inactive,"inconclusive: 4.85 µM [cytotoxic, partial curve]",,
COc1cc(/C=N\NC(=O)c2ccc3c(c2)OCO3)ccc1OCc1ccccc1,"inconclusive: 20.6 µM [cytotoxic, single point]","inconclusive: 20.6 µM [cytotoxic, partial curve]",,
OC[C@H]1O[C@@H](OC[C@H]2O[C@@H](OC/C=C/c3ccccc3)[C@H](O)[C@@H](O)[C@@H]2O)[C@@H](O)[C@@H]1O,inactive,inactive,,
CC(=O)OC1CC2(C)C3=CCC4(C)C5C(O)C(O)C(C(C)C)C5(C)CCC4(C)C3CCC2C(C)(C)C1OC1OC(CO)C(O)C(O)C1O (stereo not drawn),"inconclusive: 9.68 µM [cytotoxic, single point]","inconclusive: 4.85 µM [cytotoxic, single point]",,
C[C@@H]1O[C@@H](O[C@H]2[C@H](O[C@H]3[C@H](O[C@H]4CC[C@@]5(CO)C(CC[C@]6(C)C5CC=C5C7CC(C)(C)C[C@@H](O)[C@]7(C)CC[C@]56C)C4(C)C)O[C@H](C(=O)O)[C@@H](O)[C@@H]3O)OC[C@@H](O)[C@@H]2O)[C@H](O)[C@H](O)[C@H]1O (stereo partly drawn),,,inactive: 63.5% [at 9.25 µM],inactive: 70% [at 9.25 µM]
COc1cc(/C=C/c2cc(O)cc(O[C@@H]3O[C@H](CO)[C@@H](O)[C@H](O)[C@H]3O)c2)ccc1O,"inconclusive: 1.42 µM [rising, partial curve, poor fit]",inactive,,
CC/C(=C(/CC)c1ccc(O)c(CN(CC)CC)c1)c1ccc(O)c(CN(CC)CC)c1,"inconclusive: 1.46 µM [cytotoxic, partial curve, poor fit]","inconclusive: 2.31 µM [cytotoxic, full curve]",,
O=C(O)CCc1ccc(NCc2cccc3c2CCCN3CCOc2ccccc2)cc1F,inactive,"inconclusive: 20.6 µM [cytotoxic, partial curve, poor fit]",,
Cc1c(C2=CCN(C(=O)N(C)C(C)C)CC2)nnn1-c1cccnc1F,inactive,"inconclusive: 29.1 µM [cytotoxic, single point]",,
CC[N+](C)(CC)CCOC(=O)C1c2ccccc2Oc2ccccc21,inactive,"inconclusive: 0.0019 µM [cytotoxic, full curve, poor fit]",,
COC(=O)C1=COC(OC2OC(CO)C(O)C(O)C2O)C2C(C)CC(=O)C12O (stereo not drawn),inactive,inactive,,
CC(C)(C)C(=O)NCCCC(=O)O,inactive,inactive,,
CCCC1=CC2=C(CO1)C(=O)C(C)(O)C(OC(=O)c1c(C)cc(OC)cc1O)C2 (stereo not drawn),"inconclusive: 14.2 µM [cytotoxic, single point]","inconclusive: 4.47 µM [cytotoxic, partial curve]",,
C=C1CCC2C(C)(C(=O)O)CC(O)CC2(C)C1CC/C(C)=C/C(=O)O (stereo not drawn),inactive,inactive,,
CCOC(=O)C1=C(N)Oc2ccc(Cl)cc2C1C(C#N)C(=O)OCC (stereo not drawn),inactive,inactive,,
C=C1Cc2c(Cl)cc3[nH]c4c5c3c2[C@@]2(O)[C@@H]1C[C@@H]2C(C)(C)O[C@H]5C1CC[C@@]2(O)[C@@]35O[C@@H]3[C@H]3OC(C)(C)[C@H]3O[C@H]5CC[C@]2(C)[C@@]41C (stereo partly drawn),"inconclusive: 9.68 µM [cytotoxic, single point]","inconclusive: 6.11 µM [cytotoxic, single point]",,
CC(=O)OC[C@]1(O)[C@H]2[C@H](OC(=O)CC(C)C)OC=C(CO[C@@H]3O[C@H](CO)[C@@H](O)[C@H](O)[C@H]3O)[C@H]2C[C@@H]1O,"inconclusive: 12.6 µM [cytotoxic, single point]","inconclusive: 7.09 µM [cytotoxic, partial curve, poor fit]",,
CC(Cc1cc2c(c(C(N)=O)c1)N(CCCO)CC2)NCCOc1ccccc1OCC(F)(F)F (stereo not drawn),"inconclusive: 18.4 µM [cytotoxic, partial curve]","inconclusive: 18.4 µM [cytotoxic, partial curve]",,
CCCC(=O)Nc1ccc(O)c(C(C)=O)c1,"inconclusive: 0.106 µM [rising, full curve, poor fit]",inactive,,
